# Laboratory results taken from PubChem BioAssay AID889 (National Center for Advancing Translational Sciences (NCATS), 2007).
# Where “and” joins values, the source holds several entries; their conditions need not be identical. Equal values may be shown once. The campaign covered roughly 75,000 compounds. About 15 (0.02%) were called active. This list was built around the results that the source calls inconclusive (neither active nor inactive); the mix of calls is not that of the screen. Calls follow the shape of the dose curve; as a rule, active = well fitted inhibition curve with a large enough effect in the main read-out, with a control signal flat (not every such curve was filed as active); inconclusive = small, poorly fitted or top-dose-only effect, or a change in a side signal; inactive = flat fitted curve, though single readings scatter. Potencies beside an inconclusive call are fits to weak or partial responses and may not hold up. “Side channel” marks fits to a control or component signal instead of the main read-out.
# Molecular target: Caspase-7 (Homo sapiens) (UniProt P55210)
# Assay: qHTS Assay for Allosteric/Competitive Inhibitors of Caspase-7; as to activity change, negative = inhibition: % of control where 0% means no effect
# Conditions: recombinant caspase-7, Ac-DEVD-AFC fluorescence rate; activity change, negative = inhibition: at 57.5 µM (top of the series) unless noted
# Potency is read from the fitted curve at half-maximal effect; tags tell the direction and shape of the fitted curve or compound fluorescence and quenching.
# Sequence of UniProt P55210 (P55210 whole entry, looked up): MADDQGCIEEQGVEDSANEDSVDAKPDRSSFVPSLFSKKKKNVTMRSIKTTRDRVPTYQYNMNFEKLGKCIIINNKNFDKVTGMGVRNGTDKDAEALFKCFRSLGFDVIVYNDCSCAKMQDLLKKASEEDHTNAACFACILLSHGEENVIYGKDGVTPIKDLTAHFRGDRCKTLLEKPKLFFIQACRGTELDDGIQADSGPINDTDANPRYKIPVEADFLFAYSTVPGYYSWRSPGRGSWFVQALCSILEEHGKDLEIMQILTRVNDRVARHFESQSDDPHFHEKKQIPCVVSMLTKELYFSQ
Compound,Potency,"activity change, negative = inhibition"
O=c1c(-c2cccs2)nc2cnc(N3CCNCC3)nc2n1Cc1cccs1,"inconclusive: 2 µM [fluorescent, side channel, full curve]",
O=C1CCN2C=Nc3cccc4ccc1c2c34,"inconclusive: 5.01 µM [fluorescent, side channel, partial curve]",
O=C(/C=C\Nc1ccc2c(c1)OCO2)c1ccccn1,"inconclusive: 25.1 µM [inhibitor, single point]",
Cc1sc2nc(CSc3nc4ccccc4c(=O)n3CCCN3CCOCC3)[nH]c(=O)c2c1C,inactive,
O=C1C(Cl)=C(NC2CCc3ccccc32)C(=O)c2ncccc21 (configuration not stated),"inconclusive: 2.51 µM [inhibitor, partial curve]",
NC1=NC(S)C2N=CN=C2N1 (configuration not stated),inactive,
C=CCSC1=N/C(=C\C=C\c2ccco2)C(=O)S1,"inconclusive: 12.6 µM [inhibitor, partial curve]",
COc1ccc(N=c2oc3cc(O)ccc3cc2C(=O)NCC2CCCO2)cc1 (configuration not stated),"inconclusive: 15.8 µM [fluorescent, partial curve]",
Cc1ccccc1NC(=O)CSC(N)=O,inactive,
O=C(Nc1ccccc1)N1CC2(CCN(C(=O)c3cnccn3)CC2)C1,inactive,
CCOC(=O)C1CCCN(C(=O)c2cc3nc(-c4cccc(OC)c4)cc(C(F)(F)F)n3n2)C1 (configuration not stated),"inconclusive: 31.6 µM [inhibitor, single point]",
Cn1c(=O)c2c(nc(CN3CCc4ccccc4C3)n2CCc2ccccc2)n(C)c1=O,inactive,
CCc1ccc(C2CC(c3ccccc3)Nc3nc(N)nn32)cc1 (configuration not stated),"inconclusive: 31.6 µM [inhibitor, single point]",
COc1ccc(C2C(C(=O)N3CCOCC3)=C(C)NC3=C2C(=O)CC(C)(C)C3)c(OC)c1 (configuration not stated),"inconclusive: 25.1 µM [inhibitor, partial curve]",
CC(C)n1c2ccccc2c2nc3ccccc3nc21,"inconclusive: 31.6 µM [fluorescent, single point]",
O=C(CN1C(=O)c2cccc3cccc1c23)NCc1cccnc1,"inconclusive: 25.1 µM [fluorescent, side channel, single point]",
CCOc1ccccc1N1CSC2=C(C#N)C(c3c(OC)ccc4ccccc34)CC(=O)N2C1 (configuration not stated),inactive,
Cc1nc2cnc(N(C)C)nc2n(C2CC2)c1=O,"inconclusive: 12.6 µM [inhibitor, partial curve]",
CCc1ccccc1N1CC(C(=O)O)CC1=O (configuration not stated),"inconclusive: 20 µM [fluorescent, partial curve]",
Cc1ccc(-n2c(=O)c(C#N)cc3c(=O)n4ccccc4nc32)cc1,"inconclusive: 0.501 µM [fluorescent, full curve]",
N#CCCn1c(=O)c(-c2ccc(F)cc2)nc2cnc(N3CCNCC3)nc21,"inconclusive: 5.01 µM [fluorescent, side channel, partial curve]",
COc1ccc2cc3cc(C(=O)Nc4ccc5c(c4)OCCO5)oc3nc2c1,"inconclusive: 31.6 µM [fluorescent, single point]",
CN(C)Cc1ccccc1-c1ccc2ncnc(NCc3cccs3)c2c1,inactive,

Compound,Potency,"activity change, negative = inhibition"
N=C1Sc2ccccc2C2=NCCCN12,inactive,
COc1ccccc1NC(=O)c1cc2ccc(O)cc2o/c1=N\O,"inconclusive: 25.1 µM [fluorescent, partial curve]",
O=C1c2ccccc2-c2ccc(N(Cc3ccc(Br)cc3)Cc3ccc(Br)cc3)cc21,,inactive: -1.91% [at 11.5 µM]
CCCC(=O)Nc1ccc(NC(=O)c2ccccc2Cl)nc1,inactive,
COCCN(CCOC)S(=O)(=O)c1ccc(C(=O)Nc2nc(C)c(C(C)=O)s2)cc1,inactive,
Cc1ccc2cc3c(NC(=O)c4ccco4)nn(C)c3nc2c1,"inconclusive: 25.1 µM [fluorescent, partial curve]",
COCCn1c(=O)c(-c2cccc(C#N)c2)nc2cnc(N3CCNCC3)nc21,"inconclusive: 3.98 µM [fluorescent, side channel, partial curve]",
CCN1CCc2c(sc(N)c2C#N)C1,"inconclusive: 31.6 µM [inhibitor, single point]",
CN1CCN(c2ncc3nc(-c4cn(C)c5ccccc45)c(=O)n(CCc4ccccc4)c3n2)CC1,"inconclusive: 2.51 µM [fluorescent, side channel, full curve]",
c1ccc(Nc2nc(-c3cccnc3)cs2)nc1,inactive,
Cc1ccccc1N=C(N)Nc1ccccc1C,inactive,
CCOc1ccc(C2C=C(c3ccc(C)cc3)Nc3ncnn32)cc1 (configuration not stated),"inconclusive: 12.6 µM [fluorescent, side channel, partial curve]",
COc1ccc(-c2nc3cnc(N(C)C)nc3n(CCC#N)c2=O)cc1,"inconclusive: 1 µM [fluorescent, side channel, full curve]",
Oc1ccc2cccnc2c1,"inconclusive: 15.8 µM [fluorescent, side channel, partial curve]",
COc1ccc(-c2nc3cnc(N4CCOCC4)nc3n(CCC#N)c2=O)cc1,"inconclusive: 1.58 µM [fluorescent, side channel, full curve]",
O=C(Nc1ccccc1)C1CC2CCCC(C1)C2=O (configuration not stated),inactive,
COc1ccc(-c2nc3cnc(N(C)C)nc3n(CCc3ccccc3)c2=O)cc1,"inconclusive: 1 µM [fluorescent, side channel, full curve]",
COc1cccc(Nc2ncc3nc(-c4ccc(F)cc4)c(=O)n(CCC#N)c3n2)c1,"inconclusive: 12.6 µM [fluorescent, partial curve]",
CCCCCCCCCCCCCCCC(=O)NC(C)C,inactive,
O=C(CSc1nnc(-c2ccco2)n1Cc1ccccc1)c1ccc(F)cc1,inactive,
O=C(c1cc2nc(-c3ccccc3)cc(-c3ccccc3)n2n1)N1CCN(C(=O)c2ccco2)CC1,"inconclusive: 31.6 µM [fluorescent, single point]",
COc1cccc(Cn2c(=O)c(CCc3ccccc3)nc3cnc(N(C)C)nc32)c1,"inconclusive: 20 µM [fluorescent, side channel, partial curve]",
Cc1nn(-c2ccccc2)c2sc(C(=O)N(CC(=O)NC(C)(C)C)Cc3ccco3)cc12,inactive,

Compound,Potency,"activity change, negative = inhibition"
Cc1ccc(NC(=O)CC2SC3=NCCCN3C2=O)c(C)c1 (configuration not stated),"inconclusive: 25.1 µM [inhibitor, single point]",
CCNc1ncc2nc(CCc3ccccc3)c(=O)n(C[C@H]3CCCO3)c2n1,"inconclusive: 12.6 µM [inhibitor, partial curve]",
COC(=O)NC(c1cccc(C)c1)[C@@]1(C(=O)OC)CCCC1=O (some centres not stated),,inactive: 0.802% [at 11.5 µM]
Cn1c(=O)c2[nH]c(CNCc3ccccc3Cl)nc2n(C)c1=O,"inconclusive: 20 µM [fluorescent, side channel, single point]",
COc1cccc2c(=O)c3c(cnn3C)n(C)c12,"inconclusive: 5.01 µM [fluorescent, side channel, partial curve]",
COc1ccccc1N1CCN(S(=O)(=O)c2cccc3nsnc23)CC1,inactive,
COc1cccc(-c2cn3nc4c(nc3n2)CCCC4)c1,"inconclusive: 15.8 µM [fluorescent, side channel, partial curve]",
CCNc1ncc2nc(-c3ccccc3)c(=O)n(CCOC)c2n1,"inconclusive: 5.01 µM [fluorescent, side channel, partial curve]",
COC(=O)C1=CN(CC2CCCO2)C=C(C(=O)OC)C1c1cc(OC)c(OC)c(OC)c1 (configuration not stated),"inconclusive: 12.6 µM [fluorescent, partial curve]",
COc1cc2cc3c4cc(OC)c(OC)cc4cc[n+]3c(C)c2cc1OC,"inconclusive: 2.51 µM [fluorescent, side channel, full curve] and inconclusive: 3.98 µM [fluorescent, side channel, partial curve]",
Cc1nc2cc(NC(=O)N(C)c3ccc4ccccc4c3)ccc2o1,inactive,
CN1CCN(c2cc3c(c4c2[nH]c2ccccc24)C(=O)CC(C)(C)C3)CC1,"inconclusive: 15.8 µM [fluorescent, partial curve]",
CN(C)S(=O)(=O)c1cccc(C(=O)Nc2cc(Cl)ccc2O)c1,inactive,
CCOC(=O)N1CCN(C2=Nc3cccc4cccc2c34)CC1,"inconclusive: 15.8 µM [fluorescent, side channel, partial curve]",
CN(C(=O)NC(=O)C1=C(N2CCOCC2)/C(=C/c2ccccc2)CC1)S(C)(=O)=O,"inconclusive: 20 µM [inhibitor, single point]",
CCc1cc(C(=O)OC)c(NC(=O)c2cc(Br)cs2)s1,"inconclusive: 31.6 µM [inhibitor, single point]",
O=c1c(-c2cc(F)cc(F)c2)nc2cnc(N3CCNCC3)nc2n1CCc1ccccc1,"inconclusive: 12.6 µM [fluorescent, side channel, partial curve]",
COCC(=O)NCCNc1nc2ccc(C)cc2cc1C,inactive,
Nc1ccc(-n2c(N)c(C(=O)NCc3ccc4c(c3)OCO4)c3nc4ccccc4nc32)cc1,"inconclusive: 25.1 µM [fluorescent, partial curve]",
Cn1cc(-c2nc3cncnc3n(-c3ccccc3)c2=O)c2ccccc21,"inconclusive: 15.8 µM [fluorescent, partial curve]",
Cc1cc(=O)oc2cc(O)ccc12,"inconclusive: 12.6 µM [fluorescent, partial curve]",
